Laboratory results as given in the supplement of paper PMC7125110.
± gives the standard error. Variants at the background level are over-represented here.

B1: glmS ribozyme (parent)
chain: AUAAAAGCGCCAGAACUACAGAAAUGUAGUUGACGAGGAGGAGGUUUAUCGAAUUUUCGGCGGAUGCCUCCAAA

How the values were obtained:
Conditions in all cases: with glucosamine-6-phosphate
[1] = variants of: B1; assay: self-cleavage kobs at 40 uM GlcN6P; higher = faster cleavage; RNA array
Method in brief: (§1)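 Barcoded ribozyme variants were transcribed in situ on sequenced MiSeq chips by E. coli RNA polymerase. At 37 °C, a hybridised Cy3 probe tracked them while glucosamine-6-phosphate (40 μM to 10 mM) in HEPES/KCl/Mg(OAc)2 buffer flowed in and tiles were imaged over ~14 h. Per-tile medians of signals normalised to baseline and to non-cleaving reference variants were fit to one- or two-exponential decays, giving kobs. kcat and KM came from weighted Michaelis–Menten fits across concentrations.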

[2] = variants of: B1; assay: self-cleavage kobs at 160 uM GlcN6P; higher = faster cleavage; RNA array
Method in brief: as §1

[3] = variants of: B1; assay: self-cleavage kobs at 640 uM GlcN6P; higher = faster cleavage; RNA array
Method in brief: as §1

[4] = variants of: B1; assay: self-cleavage kobs at 2500 uM GlcN6P; higher = faster cleavage; RNA array
Method in brief: as §1

[5] = variants of: B1; assay: self-cleavage kobs at 10000 uM GlcN6P; higher = faster cleavage; RNA array
Method in brief: as §1

Variant	self-cleavage kobs at 40 uM GlcN6P [1]	self-cleavage kobs at 160 uM GlcN6P [2]	self-cleavage kobs at 640 uM GlcN6P [3]	self-cleavage kobs at 2500 uM GlcN6P [4]	self-cleavage kobs at 10000 uM GlcN6P [5]
AUAAAAGCGCCAGAACUACAGAAAUGUAGUUGACGAGGAGGAGGUUUAUUGAAUUUCCGGCGGAUGCCUCCAAA [C50U U57C]	< 1e-05 s⁻¹	< 1e-05 s⁻¹	–	–	–
AUAAAAGCGCCAGAACUACAGAAAUGUAGUUGACGAGGAGGAGGUUUAUCAACUUUUCGGCGGUUGCCUCCAAA [G51A A53C A64U]	< 1e-05 s⁻¹	–	< 1e-05 s⁻¹	–	–
AUAAAAGCGCCAGAACUACAGAAAUGUAGUUGACGAGGAGGAGGUUUAUCCGAUUUUCGGCGGAUGCCUCCAAA [G51C A52G]	< 1e-05 s⁻¹	< 1e-05 s⁻¹	–	< 1e-05 s⁻¹	< 1e-05 s⁻¹
AUAAAAGCGCCAGAACUACAGAAAUGUAGUUGACGAGGAGGAGGUUUAUCCAAUUUUCGGCGGACGCCUCCAAA [G51C U65C]	< 1e-05 s⁻¹	–	< 1e-05 s⁻¹	–	–
AUAAAAGCGCCAGAACUACAGAAAUGUAGUUGACGAGGAGGAGGUUUAUCUAAUUUUAGGCGGUUGCCUCCAAA [G51U C58A A64U]	< 1e-05 s⁻¹	< 1e-05 s⁻¹	–	–	< 1e-05 s⁻¹
AUAAAAGCGCCAGAACUACAGAAAUGUAGUUGACGAGGAGGAGGUUUAUCUAAUUUUCGGCGGAUGCCUCAAAA [G51U C71A]	< 1e-05 s⁻¹	–	–	–	–
AUAAAAGCGCCAGAACUACAGAAAUGUAGUUGACGAGGAGGAGGUUUAUCUAAUUUUCUGCGGAUGCCUCCAAA [G51U G59U]	< 1e-05 s⁻¹	–	< 1e-05 s⁻¹	–	< 1e-05 s⁻¹
AUAAAAGCGCCAGAACUACAGAAAUGUAGUUGACGAGGAGGAGGUUUAUCUAAUUUUCGGCGGAUUCCUCCAAA [G51U G66U]	< 1e-05 s⁻¹	–	< 1e-05 s⁻¹	–	–
AUAAAAGCGCCAGAACUACAGAAAUGUAGUUGACGAGGAGGAGGUUUAUCGCAUUUUCGGCCGAUGCCUCCAAA [A52C G62C]	< 1e-05 s⁻¹	–	–	–	–
AUAAAAGCGCCAGAACUACAGAAAUGUAGUUGACGAGGAGGAGGUUUAUCGCAUUUUCGGCUGAUGCCUCCAAA [A52C G62U]	< 1e-05 s⁻¹	< 1e-05 s⁻¹	–	–	< 1e-05 s⁻¹
AUAAAAGCGCCAGAACUACAGAAAUGUAGUUGACGAGGAGGAGGUUUAUCGUAUUUUCGGCGGAGCCCUCCAAA [A52U U65G G66C]	< 1e-05 s⁻¹	–	–	–	–
AUAAAAGCGCCAGAACUACAGAAAUGUAGUUGACGAGGAGGAGGUUUAUCGACUUUUUGGCGGAUGCCUCCAAA [A53C C58U]	< 1e-05 s⁻¹	< 1e-05 s⁻¹	–	–	–
AUAAAAGCGCCAGAACUACAGAAAUGUAGUUGACGAGGAGGAGGUUUAUCGAACUUUCGGCGGAUGCCUCCAAA [U54C]	0.00101 ± 1.9e-05 s⁻¹	0.00345 ± 0.00027 s⁻¹	0.0121 ± 0.0007 s⁻¹	0.0274 ± 0.0017 s⁻¹	0.051 ± 0.0026 s⁻¹
AUAAAAGCGCCAGAACUACAGAAAUGUAGUUGACGAGGAGGAGGUUUAUCGAACUUUCGGCGGAUGCAUCCAAA [U54C C68A]	< 1e-05 s⁻¹	–	–	–	–
AUAAAAGCGCCAGAACUACAGAAAUGUAGUUGACGAGGAGGAGGUUUAUCGAACUUUCGGCGGAUGCCACCAAA [U54C U69A]	3.96e-05 ± 1.5e-05 s⁻¹	6.58e-05 ± 2.2e-05 s⁻¹	0.000111 ± 3.8e-05 s⁻¹	0.000123 ± 3.1e-05 s⁻¹	0.000105 ± 2e-05 s⁻¹
AUAAAAGCGCCAGAACUACAGAAAUGUAGUUGACGAGGAGGAGGUUUAUCGAAGUUUCGGCGGAUGCCUCCAAA [U54G]	0.00117 ± 3.8e-05 s⁻¹	–	–	–	–
AUAAAAGCGCCAGAACUACAGAAAUGUAGUUGACGAGGAGGAGGUUUAUCGAAGUUUCGGCCGAUGCCUCCAAA [U54G G62C]	< 1e-05 s⁻¹	< 1e-05 s⁻¹	< 1e-05 s⁻¹	< 1e-05 s⁻¹	–
AUAAAAGCGCCAGAACUACAGAAAUGUAGUUGACGAGGAGGAGGUUUAUCGAAGAUUCGGCGGAUGCCUGCAAA [U54G U55A C70G]	6.4e-05 ± 1.6e-05 s⁻¹	–	0.000102 ± 1.5e-05 s⁻¹	0.000157 ± 2.6e-05 s⁻¹	0.000145 ± 2.6e-05 s⁻¹
AUAAAAGCGCCAGAACUACAGAAAUGUAGUUGACGAGGAGGAGGUUUAUCGAAUAUUCGGCGGAUGACUCCAAA [U55A C67A]	0.000444 ± 0.00015 s⁻¹	–	0.00115 ± 0.00052 s⁻¹	–	0.00563 ± 0.0018 s⁻¹
AUAAAAGCGCCAGAACUACAGAAAUGUAGUUGACGAGGAGGAGGUUUAUCGAAUAUUCGGCGGAUGCCUCUAAA [U55A C71U]	0.00109 ± 0.00019 s⁻¹	0.00212 ± 0.00076 s⁻¹	0.0121 ± 0.0034 s⁻¹	0.00755 ± 0.0025 s⁻¹	0.0549 ± 0.013 s⁻¹
AUAAAAGCGCCAGAACUACAGAAAUGUAGUUGACGAGGAGGAGGUUUAUCGAAUAUUCGGCCGAUGCCUCCAAA [U55A G62C]	< 1e-05 s⁻¹	–	< 1e-05 s⁻¹	–	< 1e-05 s⁻¹
AUAAAAGCGCCAGAACUACAGAAAUGUAGUUGACGAGGAGGAGGUUUAUCGAAUUAUUGGCGGAUGCCUCCAAA [U56A C58U]	< 1e-05 s⁻¹	–	–	–	–
AUAAAAGCGCCAGAACUACAGAAAUGUAGUUGACGAGGAGGAGGUUUAUCGAAUUAUCGGCGGAUGCCUUUAAA [U56A C70U C71U]	5.46e-05 ± 1.5e-05 s⁻¹	–	8.84e-05 ± 1.7e-05 s⁻¹	0.000232 ± 5.2e-05 s⁻¹	8.85e-05 ± 1.7e-05 s⁻¹
AUAAAAGCGCCAGAACUACAGAAAUGUAGUUGACGAGGAGGAGGUUUAUCGAAUUCUGGGCGGAUGCCUCCAAA [U56C C58G]	< 1e-05 s⁻¹	–	–	–	–
AUAAAAGCGCCAGAACUACAGAAAUGUAGUUGACGAGGAGGAGGUUUAUCGAAUUCUCUGCGGAUGCCUCCAAA [U56C G59U]	< 1e-05 s⁻¹	< 1e-05 s⁻¹	–	–	–
AUAAAAGCGCCAGAACUACAGAAAUGUAGUUGACGAGGAGGAGGUUUAUCGAAUUCUCGCCGGAUGCCUCCAAA [U56C G60C]	< 1e-05 s⁻¹	< 1e-05 s⁻¹	< 1e-05 s⁻¹	< 1e-05 s⁻¹	–
AUAAAAGCGCCAGAACUACAGAAAUGUAGUUGACGAGGAGGAGGUUUAUCGAAUUGUCGGCGGGUGCCUCCAAA [U56G A64G]	0.000369 ± 6.8e-05 s⁻¹	0.000896 ± 0.00017 s⁻¹	0.00313 ± 0.00055 s⁻¹	–	–
AUAAAAGCGCCAGAACUACAGAAAUGUAGUUGACGAGGAGGAGGUUUAUCGAAUUUACGGCGGAUGCCUCUAAA [U57A C71U]	< 1e-05 s⁻¹	–	–	–	–
AUAAAAGCGCCAGAACUACAGAAAUGUAGUUGACGAGGAGGAGGUUUAUCGAAUUUCCGGCGGAAGCCUCCAAA [U57C U65A]	< 1e-05 s⁻¹	–	–	–	–
